{"source": "patent US20250248397A1", "about": "“CHITOSAN ENCAPSULATION OF ABSOLUTE (ESSENTIAL) ROSEMARY, PEPPERMINT, AND COTTONSEED OILS” (GroPro Corporation, priority 2024, published 2025)", "system": "multiple insects", "assay": "Insecticidal activity of oxymatrine", "type": "in vivo", "conditions": "used at 500 to 6,000 ppm"}
{"smiles": "O=C1CCC[C@@H]2[C@H]3CCC[N+]4([O-])CCC[C@@H](CN12)[C@@H]34", "note": "(stereo partly shown) [Oxymatrine, oxymatrine]", "values": [{"measurement": "insecticidal control and plant phytotoxicity", "value": "superior insecticidal control was demonstrated without plant phytotoxicity"}]}
